# Source: the supplement of paper PMC3334620
# The full ranking holds about 33,000 sequences; the median of “E-score (-0.5 to 0.5)” is about -0.032, and the highest 2% start at about 0.36. Some of the results follow.
# Target: T1, Sko1 (UniProt Q02100)
# T1 sequence: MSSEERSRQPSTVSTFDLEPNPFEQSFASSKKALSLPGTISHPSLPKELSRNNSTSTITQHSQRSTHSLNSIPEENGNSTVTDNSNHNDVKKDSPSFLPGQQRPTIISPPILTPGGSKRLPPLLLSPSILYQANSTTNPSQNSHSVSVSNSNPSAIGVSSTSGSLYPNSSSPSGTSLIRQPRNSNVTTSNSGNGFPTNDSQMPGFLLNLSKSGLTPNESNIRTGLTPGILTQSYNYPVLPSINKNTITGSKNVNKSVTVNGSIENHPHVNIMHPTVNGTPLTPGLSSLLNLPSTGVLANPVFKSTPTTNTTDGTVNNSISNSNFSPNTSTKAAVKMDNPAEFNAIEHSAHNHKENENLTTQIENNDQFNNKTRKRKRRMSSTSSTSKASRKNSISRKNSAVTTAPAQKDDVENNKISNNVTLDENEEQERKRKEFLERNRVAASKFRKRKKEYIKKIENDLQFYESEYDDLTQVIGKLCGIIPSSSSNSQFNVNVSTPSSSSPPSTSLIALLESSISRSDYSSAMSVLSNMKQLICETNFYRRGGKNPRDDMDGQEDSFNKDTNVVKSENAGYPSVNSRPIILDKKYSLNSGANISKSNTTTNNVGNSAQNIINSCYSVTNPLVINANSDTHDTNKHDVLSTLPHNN
# Experiment: PBM E-score (8-mer binding enrichment) (E-score (-0.5 to 0.5)); higher = stronger / more preferred TF binding; most listed sequences are background and not binding sites
# Conditions: protein concentration: 200 nM; construct: GST-full length
# In short: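 Each ungapped eight-base word and its reverse complement, pooled, received an E-score from the Universal PBM Analysis Suite. Underlying scans, normalised with masliner, recorded fluorescent anti-GST bound to GST-tagged yeast transcription factors. These were applied at about 100-200 nM to universal all-10-mer Agilent arrays double-stranded by primer extension.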
row,Sequence,PBM E-score
1,AGTCTGAG,-0.197
2,ATCGCGGG,-0.194
3,AGTTAAGG,-0.0877
4,CTACGTGC,0.354
5,ATTTTATG,0.209
6,CCAGTACG,0.215
7,GCAGAAGA,0.169
8,AGACATAA,0.0234
9,CCGTATAG,-0.115
10,GTCTTTAA,0.178
11,CATTTTCA,0.163
12,ACACTCCC,-0.133
13,CAGGAATA,-0.0275
14,GGTCCGTA,-0.222
15,CCAAGTTA,-0.0787
16,TTCCGAAA,0.0588
17,ATTTAATC,0.215
18,TAAGTACA,0.193
19,CGGACCTA,-0.173
20,GGAATAAA,0.0414
21,GGGTCCAA,-0.209
22,ATCATAAA,0.175
23,GGATGGAA,-0.197
24,AATGGCCT,-0.195
25,ATCAGCAG,0.0541

row,Sequence,PBM E-score
1,ACAGCGTC,0.075
2,AGGAGCCT,-0.337
3,CACTGGAG,-0.293
4,ACATCCGG,-0.227
5,GCTTGGGA,-0.366
6,CGGACGCC,-0.137
7,GGTTCGCA,-0.211
8,CTGGCTTA,-0.0476
9,AATTTTAA,0.143
10,AATGAGTA,0.178
11,ATAGCCAA,0.0838
12,GCGGTGCA,-0.324
13,ATTAAATG,0.273
14,CTGTACCC,-0.24
15,GGTAAAGA,0.0235
16,CGTCTGAA,0.155
17,AAATGCCC,-0.246
18,ACCTTCCG,0.0133
19,CTATTAGC,0.164
20,ACGATTTG,0.137
21,AACTGGGT,-0.25
22,ATCATTTC,0.251
23,ATACAACG,0.25
24,AGTACAAG,-0.141
25,AACACCAA,0.109

row,Sequence,PBM E-score
1,ACAGCACG,0.0338
2,CGCGTCGA,0.0749
3,AAAGGCAC,-0.137
4,ACTACTCA,0.0815
5,ACGTACGT,0.473
6,CTAAAACC,0.0654
7,CGGCCTAG,-0.324
8,ACCGAGCG,-0.184
9,ACATACGA,0.316
10,AGTACTGG,-0.113
11,ACATCGTA,0.232
12,ATTAAAGA,0.24
13,ATGTTTGC,0.00599
14,TCGTTCCA,0.0128
15,GTGATGGA,0.0311
16,TCCGTGCA,0.00563
17,ACACAGCG,0.153
18,AGGCCTGG,-0.234
19,TAGTCCAA,-0.132
20,CGTTCCAC,-0.147
21,CAACCTTA,0.15
22,ATAGACTC,-0.148
23,CTTAATTA,0.134
24,CAGACTAC,-0.0269
25,GAGTAGCA,0.0153

row,Sequence,PBM E-score
1,CAAGCCAA,0.046
2,ACTCACCT,-0.132
3,AAAGAGCA,0.107
4,GTTACCAA,0.113
5,ACAGAGTC,0.00649
6,GTTGCTCA,-0.0195
7,GAGTTTCC,-0.217
8,AGCGCCAA,-0.154
9,CGGGACAG,-0.147
10,CCGAGAGA,-0.284
11,CGGACAGC,-0.127
12,AACTCATA,-0.00924
13,AGTTATAT,0.00967
14,ACGCGCGA,0.109
15,GTACGAAA,0.331
16,ACTCTAGG,-0.155
17,GAACTATA,-0.00048
18,AGGGCCTG,-0.348
19,GAACATTA,0.185
20,ATTGCCTG,-0.00796
21,CACGGATG,-0.081
22,AACTGATG,0.0734
23,CCATCACA,-0.0175
24,AAGCGCCC,-0.291
25,AAAGGGTA,-0.0759

row,Sequence,PBM E-score
1,TCAAATCA,0.119
2,CGAGTCTA,-0.162
3,CAAGGGGA,-0.0134
4,AAAAACCT,0.0483
5,CTGCCCGA,-0.173
6,AGTATTAG,0.00871
7,CGGTGACC,-0.172
8,AGCAACCA,-0.00225
9,AAATCGGC,-0.191
10,CAATGTCC,-0.105
11,ATCAGCCC,-0.148
12,CCATATTC,0.0472
13,ACCTTCGG,-0.171
14,ATGTAACA,0.226
15,AAAGGAAA,0.0268
16,CTCGGCGA,-0.0899
17,GTGTTTCA,0.0322
18,GCTATAAC,-0.137
19,AGGAAGGC,-0.148
20,GCCTGAAC,-0.33
21,CCCCACCC,0.00496
22,CCCTACGC,0.102
23,CTTCAGAA,-0.0195
24,GGGCCACC,-0.266
25,AAATCTAA,0.00445

row,Sequence,PBM E-score
1,AGTTTTGA,0.0411
2,ACTCCAAC,-0.0882
3,ACTCTAAT,0.0971
4,GATCCTCC,-0.264
5,GCAGCAAA,-0.178
6,GGGATTGA,0.0574
7,CGGGGGGC,-0.2
8,GGGCCCAA,-0.129
9,CACGTGTC,0.357
10,GTGCCAGA,-0.141
11,GGTATGCA,-0.0427
12,CGGTATAC,-0.116
13,AAGGTTGC,-0.0775
14,ATCGATGG,0.0422
15,AGAGGCCT,-0.264
16,GCCTCACC,-0.254
17,GGCTCGAC,-0.11
18,AGTGTAAA,0.0531
19,TATCTCGA,0.139
20,CAGTATGC,-0.0805
21,CGCTTGGA,-0.176
22,GGCGTGTA,0.0253
23,ATCGTAAA,0.32
24,GCAACGCA,0.0485
25,CTGGGTGA,-0.0411

row,Sequence,PBM E-score
1,CGGTGTCC,-0.317
2,TGCCCTAA,-0.208
3,AAGATAAC,0.0629
4,ACTTTTTA,0.168
5,GCAGCGCC,-0.0609
6,ACGTAGCT,0.444
7,GCATAAAC,0.166
8,ATCCTGTC,-0.0275
9,ATAGCTCA,0.0168
10,AACATAGT,0.115
11,CACTAAGA,-0.0742
12,CGGGCCAA,-0.242
13,AGCTGATA,0.162
14,AAAAAGAC,0.183
15,TCAGACGA,-0.0213
16,CACATCAC,0.154
17,AAGAGGAC,-0.238
18,CTAAGTAC,0.153
19,AAGAGCGG,-0.104
20,AGAGCAAT,-0.187
21,TCACCCGA,0.028
22,CACCTTTC,-0.223
